# Measurements as given in PubChem BioAssay (Tox21).
# Several values for one entry are separate records, joined by “and”; a condition that tells them apart may be missing. Equal values may be shown once. Inconclusive results, whose numbers are uncertain, are shown with a selection of clear calls. For some assays here: Potencies beside an inconclusive call are fits to weak or partial responses and may not hold up. The source holds several records for some structures; these can differ, active in one and inactive in another. Activity calls are given as the source filed them. Unless noted, calls follow the shape of the dose curve; as a rule, active = well fitted curve in the direction sought with a large enough effect in the repeat runs; inconclusive = weak or mixed curves; inactive = no such curve, though single readings can be large; an effect the other way counts as inactive or inconclusive.
# Experiments:
# [1] = qHTS assay to identify small molecule antagonists of the estrogen receptor alpha (ER-alpha) signaling pathway - cell viability counter screen (AID 743074; calls by dose curve;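 also: HEK293 cells carrying ER-alpha-UAS-bla reporter stimulated with 17beta-estradiol; % is scaled to controls: 0 for no effect and ±100 for the full control effect; nearly all actives have a fitted effect of over 45% in size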); conditions: ERalpha-bla HEK293 viability, CellTiter-Glo luminescence, 18 h; series mostly up to 69.4 µM
# [2] = qHTS assay to identify aromatase inhibitors - cell viability counter screen (AID 743084); conditions: MCF-7 aro ERE viability, CellTiter-Fluor, 24 h; activity change, negative = cytotoxicity: at 70.3 µM (top of the series);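 also: cells stimulated with testosterone during compound exposure; potency is read from the fitted curve at half-maximal effect; nearly all actives have a fitted effect of over 55% in size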
# [3] = target: Estrogen receptor (Homo sapiens) (UniProt P03372); assay: qHTS assay to identify small molecule agonists of the estrogen receptor alpha (ER-alpha) signaling pathway (AID 743075; calls by dose curve;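 also: HEK293 GripTite cells with ER-alpha and UAS-driven beta-lactamase reporter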; also: potency is read from the fitted curve at half-maximal effect; as to activation: % is scaled to controls: 0 for no effect and ±100 for the full control effect); conditions: HEK293 ER-alpha-UAS-bla, beta-lactamase FRET ratio, 18 h; series mostly up to 70.1 µM
# Sequence of UniProt P03372 (P03372 whole entry, looked up): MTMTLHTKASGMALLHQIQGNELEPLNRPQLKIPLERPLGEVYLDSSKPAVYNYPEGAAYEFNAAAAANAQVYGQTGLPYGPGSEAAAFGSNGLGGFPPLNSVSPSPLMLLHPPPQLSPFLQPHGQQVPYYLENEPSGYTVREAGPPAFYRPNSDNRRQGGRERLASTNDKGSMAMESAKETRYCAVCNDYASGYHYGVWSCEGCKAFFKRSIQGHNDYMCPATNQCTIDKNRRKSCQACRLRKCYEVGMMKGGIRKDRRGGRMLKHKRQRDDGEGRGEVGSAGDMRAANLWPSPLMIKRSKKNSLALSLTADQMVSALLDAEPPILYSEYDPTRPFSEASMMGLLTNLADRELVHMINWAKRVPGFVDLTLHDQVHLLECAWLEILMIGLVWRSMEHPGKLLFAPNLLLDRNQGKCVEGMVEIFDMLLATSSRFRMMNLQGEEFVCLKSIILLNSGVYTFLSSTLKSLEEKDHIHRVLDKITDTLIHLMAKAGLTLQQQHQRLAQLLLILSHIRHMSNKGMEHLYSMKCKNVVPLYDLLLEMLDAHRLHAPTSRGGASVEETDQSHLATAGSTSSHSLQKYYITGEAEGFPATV
# [4] = target: Estrogen receptor (Homo sapiens) (UniProt P03372); assay: qHTS assay to identify small molecule agonists of the estrogen receptor alpha (ER-alpha) signaling pathway using the BG1 cell line (AID 743079); conditions: BG1Luc4E2 cells, ERE-luciferase agonist, 22 h; activation: at 70.3 µM (top of the series) unless noted; also: nearly all actives have a fitted effect of over 20% in size; also: potency is read from the fitted curve at half-maximal effect; as to activation: % is scaled to controls: 0 for no effect and ±100 for the full control effect
# [5] = qHTS assay to identify small molecule antagonists of the estrogen receptor alpha (ER-alpha) signaling pathway using the BG1 cell line (AID 743080; calls by dose curve;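 also: BG1 cells stimulated with 17beta-estradiol alongside compound; nearly all actives have a fitted effect of over 25% in size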; also: potency is read from the fitted curve at half-maximal effect; as to activity change, negative = inhibition: % is scaled to controls: 0 for no effect and ±100 for the full control effect); conditions: BG1Luc4E2 ERE-luciferase antagonist mode, luminescence; activity change, negative = inhibition: at 70.3 µM (top of the series) unless noted
# Summary of the method: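 Endogenous full-length ER-alpha in BG1-Luc-4E2 cells drives a stably integrated 4×ERE luciferase gene; compounds were tested against 17beta-estradiol over 21.5 h, with luminescence and multiplexed viability fluorescence recorded.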
# Aromatase (Homo sapiens) = Aromatase (Homo sapiens) (UniProt P11511); assay: qHTS assay to identify aromatase inhibitors (AID 743083); conditions: MCF-7 aro ERE, testosterone-driven ERE luciferase, 24 h; series mostly up to 70.3 µM; also: nearly all actives have a fitted effect of over 55% in size; also: potency is read from the fitted curve at half-maximal effect
# Sequence of UniProt P11511 (P11511 whole entry, looked up): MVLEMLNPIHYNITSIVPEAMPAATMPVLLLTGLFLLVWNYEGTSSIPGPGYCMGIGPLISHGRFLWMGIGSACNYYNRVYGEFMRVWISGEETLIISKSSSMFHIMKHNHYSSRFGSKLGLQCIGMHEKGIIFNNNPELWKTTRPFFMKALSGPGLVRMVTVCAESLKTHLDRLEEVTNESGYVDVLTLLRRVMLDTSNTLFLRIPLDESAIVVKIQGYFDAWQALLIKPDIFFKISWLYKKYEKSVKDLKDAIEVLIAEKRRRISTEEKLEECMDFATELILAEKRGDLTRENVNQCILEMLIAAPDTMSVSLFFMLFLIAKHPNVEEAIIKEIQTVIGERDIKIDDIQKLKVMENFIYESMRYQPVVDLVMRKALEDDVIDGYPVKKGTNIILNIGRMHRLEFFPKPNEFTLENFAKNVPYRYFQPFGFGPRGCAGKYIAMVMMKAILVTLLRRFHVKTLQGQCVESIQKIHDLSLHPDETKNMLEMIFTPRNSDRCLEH
# [6] = qHTS assay to identify small molecule antagonists of the estrogen receptor alpha (ER-alpha) signaling pathway using the BG1 cell line - cell viability counter screen (AID 743081); conditions: BG1Luc4E2 viability, CellTiter-Fluor, 22 h; activity change, negative = cytotoxicity: at 70.3 µM (top of the series);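 also: compound given together with 17beta-estradiol as the ER stimulus; potency is read from the fitted curve at half-maximal effect; nearly all actives have a fitted effect of over 45% in size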
# Tags tell the direction and shape of the fitted curve or compound fluorescence and quenching.
smiles,measurement,setting,value
Clc1cccc(Cl)c1NC1=NCCN1,Potency,[1],inactive
same,Potency,[2],"inconclusive: 68.6 µM [cytotoxic, partial curve, poor fit]"
CCOCC(=O)O,Potency,[3],inconclusive: 282 nM [full curve]
same,Potency,[4],"inconclusive: 70.1 µM [activator, single point]"
CC(COC(=O)c1ccccc1)OC(=O)c1ccccc1 (stereo not given),activation,[4],inconclusive: -4.93% [phenotype inactive]
COc1cc(O)c(C(=O)c2ccccc2)cc1S(=O)(=O)O,activation,[4],inconclusive: 1.15% [phenotype inactive] [at 95 µM]
OC/C=C/CO,Potency,[3],"inconclusive: 17.3 nM [falling, full curve]"
same,activation,[4],inconclusive: 6.97% [phenotype inactive]
CCCCCCOC(=O)c1ccccc1O,activation,[4],inconclusive: 25.4% [phenotype inactive]
N[C@@H](C(=O)N[C@@H]1C(=O)N2C(C(=O)O)=C(Cl)CS[C@H]12)c1ccccc1,Potency,[4],inactive
CCC=CC#N,Potency,[4],inactive
CCn1cc(C(=O)O)c(=O)c2cc(F)c(N3CCNC(C)C3)c(F)c21 (stereo not given),Potency,[3],inactive
same,Potency,[5],inactive
same,Potency,Aromatase (Homo sapiens),inactive
Nc1ccc(O)cc1,Potency,[3],inconclusive: 9.51 µM [activator] and inconclusive: 19.5 µM [fluorescent]
same,Potency,[4],inconclusive: 71.2 µM [inhibitor]
same,Potency,[5],inconclusive: 63.5 µM
same,Potency,[6],"inconclusive: 13.3 µM [cytotoxic, single point] and active: 63.5 µM"
same,Potency,Aromatase (Homo sapiens),"inconclusive: 33.5 µM [inhibitor, single point]"
same,Potency,[2],"inconclusive: 33.5 µM [cytotoxic, single point]"
